# In all, about 33,000 sequences were measured (“E-score (-0.5 to 0.5)”: median about -0.054, highest 2% from about 0.39 on). The list shows a part of the results.
# Molecular target: Ylr278c (UniProt Q05854)
# Test: PBM E-score (8-mer binding enrichment) (E-score (-0.5 to 0.5)); higher = stronger / more preferred TF binding; most listed sequences are background and not binding sites
# Settings: protein concentration: 200 nM; construct: GST-DNA-binding domain
# Summary of the method: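 For each ungapped eight-base word taken together with its reverse complement, the Universal PBM Analysis Suite assigned an E-score. Binding data came from GST-tagged yeast transcription factors, applied at about 100-200 nM, on universal all-10-mer Agilent arrays made double-stranded by primer extension. Fluorescent anti-GST marked bound protein, and scans were normalised with masliner.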
row,Sequence,PBM E-score
1,ATAACGTG,-0.147
2,ACACTGGT,-0.175
3,AATCCACC,-0.153
4,GCTCCATA,-0.175
5,CGTGCTCC,0.234
6,ATTATCGG,0.333
7,GGGAGTCA,-0.00639
8,ACCCCGGG,0.404
9,GACAGAAC,-0.0438
10,CTGCAAGA,-0.177
11,ATAACCAT,-0.0986
12,ACCCCATG,0.0309
13,CAAAGAAA,-0.141
14,TTCCGGAA,0.467
15,GACTGACA,-0.0362
16,AAATCCGT,0.362
17,GACTCTCC,0.181
18,AGAGTCCA,-0.207
19,ATTCGGTG,0.125
20,AAGCTACT,-0.192
21,CTACCGGC,0.2
22,ACCTTGCG,-0.089
23,CCGTTGCA,0.0458
24,ACGTGCAG,-0.268
25,GTTATGAA,-0.155

row,Sequence,PBM E-score
1,CAATTGAA,-0.0803
2,ACCTACCG,-0.0379
3,CGCTGAAG,0.0104
4,AACTCCTT,0.14
5,GAGTCATC,-0.00515
6,CTGGATGC,-0.224
7,ACCTCGCG,-0.0559
8,CTCTTTGA,-0.19
9,GCCACCCA,-0.207
10,ATCAATTG,-0.059
11,ATGAAGGA,-0.102
12,CCTGATGA,-0.0926
13,AAGAATCG,0.205
14,GACAACGC,0.0243
15,ACTTCGTA,-0.0317
16,AGCGTCAG,-0.279
17,ACTTACCC,0.0825
18,CCCACACA,-0.192
19,ACGACCTG,-0.242
20,TAAGCCGA,0.28
21,AAGTGAGC,-0.26
22,GGGGATGA,0.0109
23,GTAAGCTA,-0.0576
24,CAAACAAC,-0.0522
25,ATAAACCC,0.105

row,Sequence,PBM E-score
1,ACTTCTGA,-0.171
2,ACTACCTC,0.00874
3,AATTTAAG,-0.0792
4,AATTCCAG,0.103
5,CATCCTCA,-0.0435
6,CAGTGATA,-0.055
7,ACATGTCC,0.199
8,AAAAGCTT,-0.0605
9,CAGTACAA,-0.131
10,GTACGGGA,0.019
11,AATCTCAC,-0.174
12,CCATTGGG,-0.287
13,GGCAGTAC,-0.111
14,ATTTCAAG,-0.115
15,AAGAGAGA,-0.321
16,GCCGGTAC,0.242
17,GTATACAA,0.00253
18,GCGCATCC,0.136
19,ATACTTGG,-0.252
20,GGGGAGTA,0.0376
21,AATGGGTG,-0.0286
22,ATCTATGG,-0.0799
23,GTGTCAAA,-0.0809
24,AAAGGCCG,0.37
25,ACGAGACA,-0.0328

row,Sequence,PBM E-score
1,ACTGTTCT,-0.104
2,CATTAACC,0.0637
3,ATCAGTCG,-0.025
4,CCTACGTC,-0.0729
5,ATGAATTA,-0.228
6,AAAACCAA,-0.129
7,ATTCACTC,0.0175
8,CATTCCCG,0.29
9,GAATACAA,0.101
10,AGCGAAAT,0.0364
11,GCGAAAGA,-0.141
12,GACAAAAA,0.124
13,CGTTGCGC,0.0941
14,ATTGGCTC,-0.0867
15,CGAAGGTC,0.0563
16,ATCGGGGG,0.209
17,ACGCCCTC,0.138
18,AATGATCA,-0.218
19,GCATTCGC,-0.0626
20,CTACTTTA,-0.0983
21,CTCGTGTC,-0.216
22,TGAGTCAA,-0.201
23,AGCCAGCA,-0.22
24,AACGGTAC,-0.0512
25,GCCTCAGC,-0.112

row,Sequence,PBM E-score
1,AATTATGC,0.00469
2,CATCTATA,-0.0607
3,CCGCCCGG,0.402
4,GAGCAGTA,0.0369
5,AGCGACCA,-0.115
6,CTCTGAAA,-0.19
7,ATTAAGCC,0.14
8,CGTTAGTC,0.00755
9,ATCTCCCG,0.301
10,ACTAGGAA,-0.0851
11,CCGCCGAC,0.293
12,GCAAATGC,-0.0446
13,ATCGAATC,0.0503
14,AATTAGGT,-0.161
15,CGGACGTA,0.326
16,ATGGCTAA,-0.0485
17,ATAGCTAA,-0.148
18,AAACGCGG,0.339
19,AAGATTCT,-0.242
20,GGATGTAC,-0.0654
21,GTTCACGA,-0.0592
22,CTCTACAG,-0.308
23,CAGTTCTA,-0.231
24,CGGGATGA,0.231
25,CAGTTTAG,-0.0964

row,Sequence,PBM E-score
1,CAAACCTC,-0.114
2,CCCTCGTC,0.0775
3,CGTCCTGA,-0.284
4,CTCAAAAC,-0.0982
5,CAAAACCA,-0.113
6,GAATCTTA,-0.0176
7,ATAAGTGC,-0.179
8,GATTCACA,-0.101
9,AAAACCTG,-0.221
10,GTCTCAAA,-0.164
11,GTGGCTGA,0.0849
12,GTAGGGAA,-0.0225
13,GTCTTACA,-0.252
14,ACAGCTTC,-0.182
15,CAAACACC,0.106
16,ATTCCGGC,0.463
17,CAATCTGC,-0.0859
18,GATGAGTA,-0.154
19,CAGCGTCC,0.0707
20,CTCTAAGA,-0.0471
21,GACTCAAA,-0.24
22,AACGCTCA,-0.187
23,CCACTTAG,-0.183
24,CCTGCCCC,-0.0192
25,CTATTATC,0.104

row,Sequence,PBM E-score
1,GACGACCA,-0.153
2,AATCAGCA,-0.163
3,ACAACATA,-0.0493
4,AATTCGCG,0.123
5,AGGATAAA,-0.0305
6,ACCAACGC,0.0624
7,AGGAAACA,0.00018
8,CTGATGGC,-0.0323
9,ATTGTTAG,-0.131
10,GTATTCTA,-0.141
11,AATTTGTA,0.0191
12,TAGCTCGA,-0.0077
13,CCTTCTGC,-0.136
14,ACCTGCGA,-0.105
15,GCCGGTAA,0.341
16,CCGGCCTC,0.269
17,CATCTCGA,-0.258
18,AACTAACT,-0.0106
19,ATAGTTCC,0.15
20,GCAGAACC,-0.157
21,CAAATTCG,0.176
22,TCAAAAGA,-0.0887
23,CCATCACG,-0.0399
24,ACACGACC,-0.0307
25,GTAGTGCA,-0.126

row,Sequence,PBM E-score
1,AGACTTGG,-0.281
2,CTGCTCAC,-0.328
3,GAACTGTA,0.101
4,CTGTCAAC,-0.255
5,GGCATCAA,-0.173
6,CAAATAGG,-0.194
7,GGTCTTTA,-0.0369
8,ATGCGAAC,0.0978
9,ATCGTTAG,-0.0848
10,AATCGAGA,-0.115
11,AACCTGCT,-0.092
12,CCGCGCTC,0.312
13,CATTTACG,0.056
14,ATGCCTAC,-0.241
15,GTTTGTCA,-0.0804
16,AGAATTAG,-0.16
17,TGAAGCAA,-0.284
18,CCTGACTA,-0.0923
19,ATAATCTC,0.0896
20,AAAAGCAA,-0.111
21,ATCCCGAC,0.34
22,ATTGGTAG,-0.142
23,GCCGTAGA,0.129
24,GGTAAGTA,-0.00483
25,ACAAGACA,-0.0802

row,Sequence,PBM E-score
1,ACCGATAC,0.0537
2,AGGGGCAG,-0.25
3,CGTAGTAG,0.0271
4,ATTTCGAG,0.00422
5,ATACGGAG,0.425
6,AATAGCAA,0.00909
7,GAATCGCA,-0.0817
8,CGTAGCGC,-0.0805
9,GCTTCTTA,0.0454
10,ATGCGTTA,-0.102
11,GAAGACAC,0.0215
12,CCGATGGA,0.31
13,CGTTTAAA,0.0722
14,CAGTTTAC,-0.251
15,AGTTTAGC,-0.0113
16,AATGCACG,0.176
17,GACCTCGC,0.00628
18,AAGTCACG,0.0672
19,ATAATCCC,0.114
20,CAAAATCC,0.335
21,ATAACCAA,-0.0848
22,AGCCACAA,-0.0479
23,TCTAAGCA,-0.105
24,AATAGTGG,-0.149
25,AAAAATCT,-0.0213

row,Sequence,PBM E-score
1,GCAACCGA,-0.136
2,GGATGTGA,0.0636
3,CGGTCGGC,0.311
4,AGAGTTAA,-0.262
5,AACGAGGA,-0.12
6,GAACCCGC,0.196
7,GGAATTCC,0.441
8,CGAAGTTC,0.0669
9,AACTTGCC,-0.0566
10,AACCCGTG,-0.127
11,GAACTCGA,-0.14
12,CACCAATG,0.0486
13,AGAAAAGA,-0.162
14,AGAGTCGG,0.179
15,TCTACGCA,-0.139
16,AAACGGAT,0.242
17,GCCGAATA,0.261
18,GCACTTAA,-0.0787
19,ACCTGACT,-0.171
20,ATTGCTCG,0.125
21,CCGTCTAC,0.141
22,CTTTCAAA,0.0824
23,CACGCCTC,-0.222
24,CCGAGGCA,0.0949
25,CCATGCGC,0.00176

row,Sequence,PBM E-score
1,AATTGGAC,0.0279
2,ACGCAGTC,-0.233
3,GGCTACGA,-0.0314
4,AGGACCCA,-0.0634
5,CATCATCC,-0.106
6,AATGTACA,0.051
7,CCTAGTAA,0.00285
8,AACTATAG,-0.0717
9,GGTGCACC,-0.00086
10,CAGAATCA,-0.264
11,CTCGACCA,-0.232
12,GTTCTTAA,0.0083
13,CTTTCTGC,0.0403
14,CTTAATCC,0.194
15,CATCGGTA,0.261
16,GCAGTCCC,-0.0348
17,GGGGTGAA,0.0354
18,ATTGGTGG,-0.0303
19,ACGTACAT,-0.0876
20,GTCATAGA,-0.171
21,CCGTGAAG,0.11
22,CTAGTTCC,0.0969
23,CTCCAAAC,-0.0559
24,CACGTTTA,-0.198
25,CTCACCTA,-0.134

row,Sequence,PBM E-score
1,GGTGTGCA,-0.277
2,GTGAACCA,-0.201
3,TACTCCTA,-0.187
4,AGTAGGTC,-0.121
5,AGGTCCCA,-0.224
6,CCAGGTGC,0.00287
7,CGGGGGAA,0.255
8,AGTAGGAA,-0.241
9,CCGGTCCA,0.21
10,AGCTTAGG,-0.123
11,ACCTAGAC,-0.125
12,CAGGTCCG,0.353
13,AGAACTGC,-0.211
14,GACAGTTA,0.138
15,AGATCACG,-0.12
16,TCCGCGAA,0.343
17,AAATAAAG,0.0294
18,TCACTAAA,-0.193
19,CGACTAAA,-0.01
20,AGCACAGG,-0.148
21,ATCACGAA,-0.154
22,ACCTCGAT,-0.00037
23,AAGACAGG,-0.18
24,GAGAGTCC,0.0243
25,CTTTATGA,-0.322

row,Sequence,PBM E-score
1,AATTGTAG,-0.178
2,CCGCGAAG,0.282
3,AAAAGCGG,0.28
4,CGACGCCA,0.0485
5,AGTGTCCA,-0.206
6,ATCAGCCC,-0.123
7,CCATATTC,0.0287
8,CAATGTCC,0.141
9,ACCTTCGG,0.263
10,GTGTTTCA,-0.144
11,AAAGGAAA,-0.00742
12,ATGTAACA,-0.0411
13,CTCGGCGA,0.354
14,GCTATAAC,-0.0616
15,AGGAAGGC,-0.204
16,CCCCACCC,0.24
17,CCCTACGC,-0.172
18,CTTCAGAA,-0.0137
19,GCCTGAAC,-0.217
20,GGGCCACC,-0.0283
21,AAATCTAA,-0.15
22,AGTTTTGA,-0.0999
23,ACTCTAAT,-0.121
24,GATCCTCC,0.166
25,GCAGCAAA,-0.104

row,Sequence,PBM E-score
1,ACTCCAAC,-0.00141
2,CGGGGGGC,-0.0107
3,GGGCCCAA,-0.132
4,CACGTGTC,-0.197
5,GGGATTGA,0.0278
6,GTGCCAGA,-0.175
7,CGGTATAC,0.23
8,GGTATGCA,-0.156
9,GCCTCACC,0.0697
10,GGCTCGAC,-0.177
11,CAGTATGC,-0.128
12,AGTGTAAA,-0.0393
13,TATCTCGA,-0.169
14,CGCTTGGA,-0.0659
15,AGAGGCCT,-0.21
16,AAGGTTGC,-0.111
17,ATCGATGG,-0.0527
18,ACTCACCT,-0.323
19,AAAGAGCA,-0.118
